ChEMBL document CHEMBL4888484, “Replenishing the malaria drug discovery pipeline: Screening and hit evaluation of the MMV Hit Generation Library 1 (HGL1) against asexual blood stage Plasmodium falciparum ,using a nano luciferase reporter read-out” (2022)
About 540 (0.36%) of roughly 150,000 compounds showed an effect of 50% or more. The list shows a part of the results.

Each compound was assayed on Plasmodium falciparum (assay: Primary screen in NF54 nanoGlo assay, in single point, at 2uM, 72h; a lower Z score goes with more inhibition). Settings: timepoint 72 hour.
Assay type: functional, Erythrocyte
In the case of O=C1CN(Cc2nc(-c3cccc(Br)c3)c[nH]2)CCN1C1CC1, the “% Inhibition” value is reported as -5% and the Z score is reported as 0.83. For O=C(Nc1ccc2[nH]c(=O)[nH]c2c1)[C@@H]1CC=CCC1, the “% Inhibition” value was -8% and the Z score was 1.07. CCNc1nc(NCC)nc(NS(=O)(=O)c2ccc(N)cc2)n1 was tested, and the “% Inhibition” value was -28% and the Z score was 3.31. CCn1cc(C(=O)Nc2ccc(COC3CCCC3)cc2)c(=O)c2cc(Cl)ccc21 was tested, and the “% Inhibition” value was 10% and the Z score was -1.15. For CNC(=O)Cc1noc(-c2ccc(-n3ccnc3)cc2)n1, the “% Inhibition” value was -4% and the Z score was 0.67. In the case of O=C(Nc1nc2n(n1)CCCC2)N1CCC[C@H]1c1cccs1, the “% Inhibition” value is reported as -5% and the Z score is reported as 0.88. With CCCc1noc(-c2ccn3c(CC(=O)N4CCCC4)nnc3c2)n1 the “% Inhibition” value was -3% and the Z score was 0.52. In the case of CC(C)c1cc([C@@H]2CCCN2Cc2cc(F)ccc2F)on1, the “% Inhibition” value is reported as -9% and the Z score is reported as 1.18. In the case of Cn1nc2nc(N3CCC(N4CCCCC4)CC3)nc(-c3cccc(Oc4ccccc4)c3)c2c1N, the “% Inhibition” value is reported as 19% and the Z score is reported as -2.46. With O=C(Cn1cnc2ccccc2c1=O)Nc1ncccc1O the “% Inhibition” value was -7% and the Z score was 1.42. Cc1ccc(C(=O)NCCNC(=O)c2ccc(C)o2)o1 was tested, and the “% Inhibition” value was -22% and the Z score was 2.83. With CC(NC(=O)N1CCOCC1C1CCCO1)c1cccc(F)c1F (stereo not given) the “% Inhibition” value was -10% and the Z score was 1.77. In the case of O=C(NC[C@H]1Cc2ccccc2CN1)c1c[nH]c(C2CC2)n1, the “% Inhibition” value is reported as -4% and the Z score is reported as 0.76. For O=C(N[C@@H](Cc1ccccc1)C(=O)O)c1coc(Br)c1, the “% Inhibition” value was -15% and the Z score was 2.21. Cc1cc(CNC(=O)COCc2nc(-c3ccccc3)no2)no1 was tested, and the “% Inhibition” value was -6% and the Z score was 0.81. CC(=O)N[C@H]1CC[C@]2(C)CC[C@@H]([C@H](C)C(=O)NCc3cccs3)[C@H](O)[C@H]2[C@@H]1C was tested, and the “% Inhibition” value was -7% and the Z score was 1.1. With Cc1cc(C)c2[nH]c(C(=O)N3CC[C@H](N(C)C)C3)c(C)c2c1 the “% Inhibition” value was -10% and the Z score was 1.18. Cc1nn(C)cc1-c1csc(C2(N)CCCC2)n1 was tested, and the “% Inhibition” value was -2% and the Z score was 0.22. With O=S(=O)(c1ccc(Cl)cc1)N1CCC2(CC1)NCCN=C2NC1CCCC1 the “% Inhibition” value was -4% and the Z score was 0.56. For CCc1cnc(C)nc1N1CC[C@@](O)(C2CCOCC2)[C@H](C)C1, the “% Inhibition” value was -4% and the Z score was 0.76. CC1CN(C(=O)Cn2cnc3ccccc3c2=O)CC(C)O1 (stereo not given) was tested, and the “% Inhibition” value was -4% and the Z score was 0.63. For Cc1ccc(OCC(=O)Nc2ccc3oc(-c4cccc5ccccc45)nc3c2)c(-n2cnnc2)c1, the “% Inhibition” value was -2% and the Z score was 0.21. With Cc1ccc(CNC(C)(C)CO)c(C)c1 the “% Inhibition” value was -8% and the Z score was 1.14. O=C(NCCn1ccnc1)c1cc(-c2ccsc2)n[nH]1 was tested, and the “% Inhibition” value was -15% and the Z score was 1.64. With COc1ccc(NC(=O)CN2CCc3nc(C)[nH]c(=O)c3CC2)cc1Cl the “% Inhibition” value was -8% and the Z score was 1.11. In the case of C1CC(C(Nc2nnc(C3CC3)o2)C2CCC2)C1, the “% Inhibition” value is reported as 14% and the Z score is reported as -1.95. CN(C)[C@H](c1ccc(F)cc1)c1nc(CC(N)=O)nn1CC(F)(F)F was tested, and the “% Inhibition” value was 3% and the Z score was -0.62. For Cc1cnc(CNC(=O)N[C@@H](C)c2cnn(C(C)C)c2)s1, the “% Inhibition” value was -1% and the Z score was 0.17. For COc1ccc2c(n1)N(C)CCN2C(=O)[C@H]1CCc2nc(C)nn2C1, the “% Inhibition” value was 0% and the Z score was -0.02. With CC(C)CS(=O)(=O)NC[C@H](C)N1CCN(C)CC1 the “% Inhibition” value was -11% and the Z score was 1.8. CC(C)n1cc(S(=O)(=O)NCc2cccc(Cl)c2)c2cccnc21 was tested, and the “% Inhibition” value was 7% and the Z score was -1.18. With CN(Cc1ccccn1)c1ccnc(C2CCCC2)n1 the “% Inhibition” value was -1% and the Z score was 0.09. In the case of COc1ccc(CN2C(=O)Cc3ccccc3[C@@H](C(=O)O)[C@@H]2c2ccccc2)c(OC)c1, the “% Inhibition” value is reported as 0% and the Z score is reported as -0.05. With O=C(c1cnc(-c2cccnc2)nc1)N1CCc2sccc2C1 the “% Inhibition” value was -5% and the Z score was 0.64. O=C(NCc1ccccc1)c1cc(S(=O)(=O)N2CCCCC2)cs1 was tested, and the “% Inhibition” value was -10% and the Z score was 1.13. In the case of COc1ccccc1-c1ccc(C(=O)N2CCCNC(=O)[C@@H]2C)s1, the “% Inhibition” value is reported as -10% and the Z score is reported as 1.82. For COC(=O)N[C@H](C(=O)Nc1nnn(-c2ccc(F)cc2)c1C)C(C)C, the “% Inhibition” value was -1% and the Z score was 0.11. CN(CCO)c1c(Cl)cccc1C#N was tested, and the “% Inhibition” value was -6% and the Z score was 0.64. For O=C(NCc1cccc(N2CCCC2)c1)[C@H]1CCCN(Cc2ccco2)C1, the “% Inhibition” value was -15% and the Z score was 1.62. For Cn1c(C2CCN(C(=O)Nc3ccc(C(F)(F)F)cc3)CC2)cc(=O)n2nccc12, the “% Inhibition” value was -7% and the Z score was 1.17. With CN(Cc1nccn1C(F)F)Cn1c(=S)oc2ccccc21 the “% Inhibition” value was 5% and the Z score was -0.41. For O=C(NCC[C@H]1CCCCN1)c1cccc(-c2cc(O)c(F)c(F)c2)c1, the “% Inhibition” value was -10% and the Z score was 1.22. With COCCOCC(=O)N(C1CCC(C)CC1)[C@@H](C)c1ccc(OC)cc1OC (stereo not given in full) the “% Inhibition” value was -9% and the Z score was 1.32. With Cc1ccc(S(=O)(=O)Nc2cncc(N3CCCC3)n2)cn1 the “% Inhibition” value was -20% and the Z score was 2.03. In the case of Cc1ccc(S(=O)(=O)N[C@H](c2c(C)nn(-c3ccccc3)c2C)C(F)(F)F)s1, the “% Inhibition” value is reported as -4% and the Z score is reported as 0.53. Cc1cc(C)cc(CN2C(=O)NC3(CCOCC3)C2=O)c1 was tested, and the “% Inhibition” value was -21% and the Z score was 2.48. For Cc1ccc(-n2nc(C)c3c(=O)n(CC(=O)N4CCN(c5cc(Cl)ccc5C)CC4)ccc32)cc1, the “% Inhibition” value was -13% and the Z score was 2.07. In the case of CC(C)c1cc(CN(C)C(=O)CN2CCCCCCC2)on1, the “% Inhibition” value is reported as -19% and the Z score is reported as 2.56. For C=CCN(Cc1ccc(F)cc1)C(=O)CCNC(C)=O, the “% Inhibition” value was -16% and the Z score was 2.05. For O=C(NCc1ccc(F)cc1)C1[C@@H]2C=C[C@@]3(CN(Cc4ccccc4Cl)C(=O)[C@H]13)O2 (stereo not given in full), the “% Inhibition” value was -9% and the Z score was 1.29. In the case of O=C1O[C@H]2CN(C3Cc4ccccc4C3)C[C@H]2N1Cc1ccccn1, the “% Inhibition” value is reported as 4% and the Z score is reported as -0.66. With FS(F)(F)(F)(F)c1cccc(-n2cc(C3CCCCC3)nn2)c1 the “% Inhibition” value was -1% and the Z score was 0.14. In the case of CC1(C)CCc2nc(NC(=O)[C@@H]3COCCO3)sc2C1, the “% Inhibition” value is reported as -8% and the Z score is reported as 1.06. For CC(C)CC(=O)[C@H]1CCCN(C(=O)CNC(N)=O)C1, the “% Inhibition” value was -7% and the Z score was 0.9. Nc1ncccc1CN1CCC[C@H](CNC(=O)c2ccco2)C1 was tested, and the “% Inhibition” value was 4% and the Z score was -0.76. For CN(C)C(=O)N1C[C@H]2CC[C@@H](C1)N(C(=O)c1c[nH]c3c(F)cccc3c1=O)C2, the “% Inhibition” value was -1% and the Z score was 0.19. For c1ccc(-c2noc(-c3ccc(NC4CCCCC4)nn3)n2)cc1, the “% Inhibition” value was 45% and the Z score was -10.06. For COCc1csc(Cc2cn3ccccc3n2)n1, the “% Inhibition” value was 5% and the Z score was -0.99. CCOc1ncccc1NC(=O)N1CCC[C@H]1c1cccs1 was tested, and the “% Inhibition” value was 15% and the Z score was -2.01. In the case of CN1C2CCC1CN(C(=O)NCCc1c[nH]c3ccc(F)cc13)CC2 (stereo not given), the “% Inhibition” value is reported as 3% and the Z score is reported as -0.27. For O=C(N[C@H]1CCCC[C@@H]1F)c1ccc[nH]1, the “% Inhibition” value was -1% and the Z score was 0.08. With O=C1C[C@]2(CC2(c2ccccc2)c2ccccc2)C(=O)N1c1ccc(Cl)cc1Cl the “% Inhibition” value was 8% and the Z score was -1.47. In the case of CCn1nc(C)c(CN2CCc3c(c(CCC(=O)N4CCCC4)nn3C)C2)c1C, the “% Inhibition” value is reported as -8% and the Z score is reported as 0.95. For CCN(CC)CC(=O)N1CCC(c2nc(C(F)(F)F)c[nH]2)CC1, the “% Inhibition” value was 3% and the Z score was -0.55. In the case of CCc1ccc(CN2C(=O)CC[C@@]2(C)C(=O)NC2CCCCCCC2)cc1, the “% Inhibition” value is reported as -8% and the Z score is reported as 0.92. O=c1ccccn1CC1CCC(F)(F)CC1 was tested, and the “% Inhibition” value was -4% and the Z score was 0.7. For Cn1nnc2cc(NCC34CC3CN(C(=O)OC(C)(C)C)C4)ccc21 (stereo not given), the “% Inhibition” value was -10% and the Z score was 1.28. For C=CC[C@]1(CO)CCCN(CCOCC)C1, the “% Inhibition” value was -16% and the Z score was 2. In the case of CC(=O)Nc1ccc(S(=O)(=O)NC[C@](C)(O)c2cc3ccccc3o2)cc1, the “% Inhibition” value is reported as 0% and the Z score is reported as -0.08. O=C(Cc1ccccc1F)Nc1cnn(CC2CC2)c1 was tested, and the “% Inhibition” value was -1% and the Z score was 0.12. In the case of CCn1cnnc1[C@@H]1CCCCN1C(=O)CCc1c[nH]c2ccccc12, the “% Inhibition” value is reported as -12% and the Z score is reported as 1.4. For Cc1cc(N2CCCOCC2)n2nccc2n1, the “% Inhibition” value was 8% and the Z score was -0.92. With C=C1CCC(NC(=O)c2cc(C)n(C)n2)CC1 the “% Inhibition” value was -4% and the Z score was 0.79. For CCCCc1nc(Cn2nnnc2C)no1, the “% Inhibition” value was -4% and the Z score was 0.6. In the case of N#Cc1cnn(CC2CCC(F)(F)CC2)c1, the “% Inhibition” value is reported as 0% and the Z score is reported as -0.06. In the case of O=C(NC[C@H]1CCCO1)Nc1ccccc1-c1cc2ccccc2[nH]1, the “% Inhibition” value is reported as 27% and the Z score is reported as -3.06. CCn1cc(CNC(=O)c2ccc3nc(-c4ccc(F)cc4)cn3c2)cn1 was tested, and the “% Inhibition” value was -10% and the Z score was 1.85. For CCc1cc(C(=O)N2C[C@H](C(=O)N3CCOCC3)[C@@H](C)C2)n(C)n1, the “% Inhibition” value was -8% and the Z score was 1.08. In the case of Clc1cnc2nc(N3CCO[C@H](c4nccs4)C3)ccc2c1, the “% Inhibition” value is reported as -12% and the Z score is reported as 1.87. With C[C@@H](c1ccccn1)N(C)c1nc(N)nc2nc[nH]c12 the “% Inhibition” value was 5% and the Z score was -0.59. COc1ccc(C2CN(Cc3ccccn3)CC2CN(Cc2ccc(F)cc2)C(C)=O)cc1 (stereo not given) was tested, and the “% Inhibition” value was 15% and the Z score was -1.72. With O=C(Cc1cc(F)ccc1Br)N[C@H]1CC12CCNCC2 the “% Inhibition” value was -5% and the Z score was 0.87. Cc1nc(C)c(C(=O)N(C)Cc2csc(-c3cccs3)n2)s1 was tested, and the “% Inhibition” value was -12% and the Z score was 2.25. For C[C@@H](CCNc1nc(C(N)=O)cs1)NC(=O)OC(C)(C)C, the “% Inhibition” value was -3% and the Z score was 0.51. O=C(NC[C@H]1CCCO1)c1nc(-c2ccnc(N3CCCC3)c2)no1 was tested, and the “% Inhibition” value was -10% and the Z score was 1.78.
